Here are results for four molecules from article PMC11352460, “RILP Induces Cholesterol Accumulation in Lysosomes by Inhibiting Endoplasmic Reticulum–Endolysosome Interactions” (Cells, 2024).

By UniProt entry, the sequences of proteins in these tests, tags left out.
UniProt Q9H4L5: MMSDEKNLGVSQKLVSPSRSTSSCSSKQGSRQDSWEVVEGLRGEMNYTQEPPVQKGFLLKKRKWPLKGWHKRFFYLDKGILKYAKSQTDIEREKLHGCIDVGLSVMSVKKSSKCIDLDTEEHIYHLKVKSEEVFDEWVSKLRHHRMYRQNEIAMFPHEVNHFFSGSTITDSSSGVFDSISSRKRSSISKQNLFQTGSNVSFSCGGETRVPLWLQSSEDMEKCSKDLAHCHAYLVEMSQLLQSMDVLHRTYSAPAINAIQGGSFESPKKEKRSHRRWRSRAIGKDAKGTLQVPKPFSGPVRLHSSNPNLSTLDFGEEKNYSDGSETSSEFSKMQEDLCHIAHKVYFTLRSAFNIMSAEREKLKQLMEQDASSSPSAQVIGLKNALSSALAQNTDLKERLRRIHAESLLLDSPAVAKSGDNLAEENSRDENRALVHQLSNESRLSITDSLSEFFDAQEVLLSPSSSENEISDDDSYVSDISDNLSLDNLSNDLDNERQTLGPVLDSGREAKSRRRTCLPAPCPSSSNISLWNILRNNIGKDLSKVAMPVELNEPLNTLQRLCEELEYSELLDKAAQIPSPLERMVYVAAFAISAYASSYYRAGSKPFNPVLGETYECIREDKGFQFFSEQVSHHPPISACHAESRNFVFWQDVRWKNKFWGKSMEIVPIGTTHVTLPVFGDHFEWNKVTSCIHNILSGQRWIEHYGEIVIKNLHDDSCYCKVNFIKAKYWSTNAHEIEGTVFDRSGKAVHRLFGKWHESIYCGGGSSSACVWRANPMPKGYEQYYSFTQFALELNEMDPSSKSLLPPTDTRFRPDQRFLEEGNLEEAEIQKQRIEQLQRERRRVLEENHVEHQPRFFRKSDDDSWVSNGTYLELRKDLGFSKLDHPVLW

Where two headings read alike, the source gives them in different places. No constants are given. Whether binding was seen depends on the method and setting. Binding seen in cells or lysates may run through a third protein. Some entries that bind do so weakly or less than the wild type. For part of these data: Where a sequence is shown, tags or fusion partners need not be part of it.

Test [1] has as its target GST-RILP (Rab7-interacting lysosomal protein) (UniProt Q96NA2). The experiment in a line: pull-down; GST-fusion protein coupled to GST-Sepharose 4B resin incubated with HEK-293T lysate containing the GFP-tagged protein, 4 °C overnight; lysis buffer 20 mM HEPES pH 7.4, 1% Triton X-100, 100 mM NaCl, 5 mM MgCl2; washes with 500, 300 and 100 mM NaCl; Western blot with GFP antibody; only the target purified. (A western blot detects proteins with antibodies after separation by electrophoresis.)

The target in test [2] is T1, GFP-ORP1L (OSBP-related protein 1L), Q9BXW6.
T1 chain: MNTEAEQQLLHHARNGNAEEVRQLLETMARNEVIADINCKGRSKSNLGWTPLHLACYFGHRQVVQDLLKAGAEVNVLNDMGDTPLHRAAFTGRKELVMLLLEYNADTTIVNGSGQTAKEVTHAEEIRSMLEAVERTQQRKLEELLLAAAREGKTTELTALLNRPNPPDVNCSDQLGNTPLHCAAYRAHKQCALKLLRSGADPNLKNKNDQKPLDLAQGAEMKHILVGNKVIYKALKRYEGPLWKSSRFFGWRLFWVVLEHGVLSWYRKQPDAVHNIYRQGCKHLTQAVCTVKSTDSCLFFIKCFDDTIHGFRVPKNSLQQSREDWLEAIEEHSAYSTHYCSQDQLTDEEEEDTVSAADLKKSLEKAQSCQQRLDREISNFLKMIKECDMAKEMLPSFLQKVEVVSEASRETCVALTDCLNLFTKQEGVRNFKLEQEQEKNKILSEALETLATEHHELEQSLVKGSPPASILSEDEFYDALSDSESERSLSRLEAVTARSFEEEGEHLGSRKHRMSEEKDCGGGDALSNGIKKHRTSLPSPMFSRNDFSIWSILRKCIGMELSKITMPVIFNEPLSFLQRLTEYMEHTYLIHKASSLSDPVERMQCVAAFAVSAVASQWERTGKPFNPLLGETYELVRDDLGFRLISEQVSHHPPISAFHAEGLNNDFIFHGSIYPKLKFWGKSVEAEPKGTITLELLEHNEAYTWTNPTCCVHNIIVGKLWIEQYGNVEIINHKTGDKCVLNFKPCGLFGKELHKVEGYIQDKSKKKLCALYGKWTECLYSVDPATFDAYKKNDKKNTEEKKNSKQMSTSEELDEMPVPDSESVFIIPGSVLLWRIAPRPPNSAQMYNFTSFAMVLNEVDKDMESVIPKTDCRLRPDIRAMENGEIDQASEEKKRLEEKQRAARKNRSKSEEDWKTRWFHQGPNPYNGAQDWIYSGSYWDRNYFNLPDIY
The experiment in a line: pull-down; same experiment as a2, for the pair myc-RILP and GFP-ORP1L, both in the Hela lysate: competition read out as loss of ORP1L from GST-VAPa(1-225aa). Particulars: remark: other sources report otherwise.

For another test, the target named is GST-RILP(1-198aa) (UniProt Q96NA2). The experiment in a line: pull-down; GST-fusion protein coupled to GST-Sepharose 4B resin incubated with HEK-293T lysate containing the GFP-tagged protein, 4 °C overnight; lysis buffer 20 mM HEPES pH 7.4, 1% Triton X-100, 100 mM NaCl, 5 mM MgCl2; washes with 500, 300 and 100 mM NaCl; Western blot with GFP antibody; only the target purified.

The target of test [3] is T2, GST-VAPa(1-225aa) (UniProt Q9P0L0).
T2 sequence: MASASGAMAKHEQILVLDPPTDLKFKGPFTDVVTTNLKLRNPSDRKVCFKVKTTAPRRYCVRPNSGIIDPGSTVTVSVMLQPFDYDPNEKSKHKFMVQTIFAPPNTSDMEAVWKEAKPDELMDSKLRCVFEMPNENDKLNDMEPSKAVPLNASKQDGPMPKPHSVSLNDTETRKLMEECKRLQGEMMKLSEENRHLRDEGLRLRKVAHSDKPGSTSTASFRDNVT
The experiment in a line: pull-down; GST-VAPa(1-225aa) on beads with lysates of Hela cells co-transfected with GFP-ORP1L and increasing amounts of myc-RILP; Western blot; only the target purified.

Test [4] has as its target GST-RILP (Rab7-interacting lysosomal protein) (UniProt Q96NA2). The test is described as follows: pull-down; GST-fusion protein coupled to GST-Sepharose 4B resin incubated with HEK-293T lysate containing the GFP-tagged protein, 4 °C overnight; lysis buffer 20 mM HEPES pH 7.4, 1% Triton X-100, 100 mM NaCl, 5 mM MgCl2; washes with 500, 300 and 100 mM NaCl; Western blot with GFP antibody; only the target purified. The source holds these as a separate data set.

The target in test [5] is T2, GST-VAPa(1-225aa). The test is described as above.

For GFP-ORP3 (from UniProt Q9H4L5 1-887), the binding entry in test [1] is on record as “binds”.

B1: myc-RILP, Q96NA2 1-401 (protein)
chain: MEPRRAAPGVPGWGSREAAGSASAAELVYHLAGALGTELQDLARRFGPEAAAGLVPLVVRALELLEQAAVGPAPDSLQVSAQPAEQELRRLREENERLRRELRAGPQEERALLRQLKEVTDRQRDELRAHNRDLRQRGQETEALQEQLQRLLLVNAELRHKLAAMQTQLRAAQDRERERQQPGEAATPQAKERARGQAGRPGHQHGQEPEWATAGAGAPGNPEDPAEAAQQLGRPSEAGQCRFSREEFEQILQERNELKAKVFLLKEELAYFQRELLTDHRVPGLLLEAMKVAVRKQRKKIKAKMLGTPEEAESSEDEAGPWILLSDDKGDHPPPPESKIQSFFGLWYRGKAESSEDETSSPAPSKLGGEEEAQPQSPAPDPPCSALHEHLCLGASAAPEA
Regarding B1, the binding entry in test [2] is “binds”.

B2: GFP-ORP1L (OSBP-related protein 1L) (protein, UniProt Q9BXW6-1 1-950)
chain: T1 chain
Regarding B2, the binding entry with GST-RILP(1-198aa) and in the test with GST-VAPa(1-225aa) [3] was “binds” each time.

B3: GFP-ORP7 (protein, UniProt Q9BZF2 1-842)
chain: MDFQERDPPFLPESAQSSKPSSAQQASELWEVVEEPRVRLGTEGVMPERQEGHLLKKRKWPLKGWHKRYFVLEDGILHYATTRQDITKGKLHGSIDVRLSVMSINKKAQRIDLDTEDNIYHLKIKSQDLFQSWVAQLRAHRLAHRLDMPRGSLPSTAHRKVPGAQLPTAATASALPGLGPREKVSSWLRDSDGLDRCSHELSECQGKLQELHRLLQSLESLHRIPSAPVIPTHQASVTTERPKKGKRTSRMWCTQSFAKDDTIGRVGRLHGSVPNLSRYLESRDSSGTRGLPPTDYAHLQRSFWALAQKVHSSLSSVLAALTMERDQLRDMHQGSELSRMGVSEASTGQRRLHSLSTSSDTTADSFSSLNPEEQEALYMKGRELTPQLSQTSILSLADSHTEFFDACEVLLSASSSENEGSEEEESCTSEITTSLSEEMLDLRGAERCQKGGCVPGRPMGPPRRRCLPAASGPGADVSLWNILRNNIGKDLSKVSMPVQLNEPLNTLQRLCEELEYSSLLDQASRIADPCERMVYIAAFAVSAYSSTYHRAGCKPFNPVLGETYECERPDRGFRFISEQVSHHPPISACHAESENFAFWQDMKWKNKFWGKSLEIVPVGTVNVSLPRFGDHFEWNKVTSCIHNVLSGQRWIEHYGEVLIRNTQDSSCHCKITFCKAKYWSSNVHEVQGAVLSRSGRVLHRLFGKWHEGLYRGPTPGGQCIWKPNSMPPDHERNFGFTQFALELNELTAELKRSLPSTDTRLRPDQRYLEEGNIQAAEAQKRRIEQLQRDRRKVMEENNIVHQARFFRRQTDSSGKEWWVTNNTYWRLRAEPGYGNMDGAVLW
As to B3, the binding entry (in test [4]; with GST-VAPa(1-225aa) [5]) was “binds” in each case.
